These results are taken from PubChem BioAssay AID1963576 (National Center for Advancing Translational Sciences (NCATS), 2024).

In all, about 46,000 compounds went through this assay and about 60 (0.1%) were called active. Inconclusive results (about 3%) are left out. The call rests on the fitted dose curve; in most records, active means well fitted inhibition curve with a large enough effect; inconclusive means small, poorly fitted or top-dose-only effect; inactive means no such curve, though single readings can be large or run the other way. Some of the results follow.

This assay is described as follows: Primary qHTS assay for Inhibitors of ovarian cancer metastasis using an organotypic tumor microenvironment (TME) model. Further: nearly all actives have a fitted effect of over 65% in size.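 On activity change, negative = inhibition: plate controls were DMSO wells for no effect and tomatine positive control wells for full effect.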 The conditions noted are these: SKOV3ip1-GFP adhesion/invasion on 3D omental model, fluorescence; series mostly up to 45.8 µM; activity change, negative = inhibition: at the top concentration. The gist of the method:
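qHTS, 4-pt dose (0.36-46 umol/L); SKOV3ip1-GFP, 1,200 cells/well, no FBS; primary omental fibroblast/mesothelial co-culture 48 h pre-grown; 2 h RT + 16 h 37 C; PBS wash, 4% PFA; GFP count 488/509 nm.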
For orientation: In qHTS, concentration-response curves come from the screen itself.
For the compound `CC1(C)CC(=O)c2cc(C(=O)Nc3ccccc3Cl)c(=O)n(-c3ccc(Cl)cc3)c2C1`, the “activity change, negative = inhibition” value was inactive: 1.64%. The same measure, in the same setting: to `O=C(NCc1ccccc1)C(=O)NCC(c1cccs1)S(=O)(=O)c1ccccc1` (stereo unspecified) belongs inactive: 5.54%; to `CCOC(=O)c1ccc(NC(=O)c2cc3sccc3n2Cc2ccc(Cl)cc2)cc1`, inactive: -16%. Consider `Cc1ccc(N(Cc2cccs2)C(=O)c2ccccc2Cl)cc1`, for which the compound was called inactive. `Cc1ccc(-c2nc3ncccc3o2)cc1NC(=O)c1ccc(-c2ccc(Cl)cc2)o1`: the “activity change, negative = inhibition” value was inactive: 3.76%.

On to `Cc1cccc(NC(=O)CSc2nc(-c3ccco3)cc(C(F)(F)F)n2)c1C`, for which the result was inactive.

`Cc1cccc(N2CCN(S(=O)(=O)c3csc(C(N)=O)c3)CC2)c1C`: the “activity change, negative = inhibition” value is inactive: 9.65%. Still for that read-out and setting: as for `COc1ccc(C)cc1NC(=O)Cn1c(=O)n(Cc2nc(C)no2)c(=O)c2ccccc21`, the figure is inactive: 7.03%; as for `COc1ccc(NC(=O)C(C)N(c2ccccc2)S(C)(=O)=O)cc1` (stereo unspecified), inactive: 6.07%. On the same count and under the same terms, as for `O=C(c1ccccc1Cl)N1CCCCC1CCN1CCCCC1` (stereo unspecified), the figure is inactive: -15.5%. Regarding `O=C(Nc1nnc2n1CCS2)c1ccc(F)cc1F`, the call was inactive. For `Cc1nn2c(=O)cc(COC(=O)c3ccccc3NC(=O)C(C)Oc3ccccc3)nc2s1` (stereo unspecified), the “activity change, negative = inhibition” value was inactive: -1.07%. Same read-out and setting: to `CCOc1ccc(CN2CCc3nc(Nc4ccc5c(c4)OCCO5)ncc3C2)cc1` belongs inactive: -0.325%.

As for `COc1ccc(NCc2cc3cc4c(cc3n(CC(=O)Nc3cc(C)ccc3C)c2=O)OCCO4)cc1`, the “activity change, negative = inhibition” value was inactive: 3.64%. In the case of `CC(C)c1ccc(NS(=O)(=O)c2ccc3nc(-c4ccccc4)[nH]c3c2)cc1`, the “activity change, negative = inhibition” value was inactive: -2.4%. Same read-out and setting: as for `COc1ccc(CCNC(=O)c2ccc(Cn3c(=O)c4ccccc4n(Cc4cccc(Cl)c4)c3=O)cc2)cc1OC`, the figure is inactive: 118%; as for `CCOc1ccccc1NC(=O)C(CC)Sc1nc2ccncc2[nH]1` (stereo unspecified), inactive: -8.76%; as for `CCN(CC)c1cc2c(cc1F)c(=O)c(S(=O)(=O)c1cccc(C)c1)cn2C`, inactive: 2.02%. Same read-out and setting: to `Cc1ccc(-c2cn(-c3cccc(Cl)c3)c(S(=O)(=O)CC(=O)Nc3ccccc3F)n2)cc1` belongs inactive: -10.5%; to `Cc1ccc(-n2nc3c(=O)n(CCCC(=O)NCCc4ccccc4Cl)nc(C)c3c2C)cc1`, inactive: -15.8%. On the same count and under the same terms, to `CCOc1ccc(C2CC(=O)N(c3cccc(F)c3)C3=C2C(=O)OC3)cc1` (stereo unspecified) belongs inactive: 1.11%. `Cc1ccc(NC(=O)Cn2c(=O)n(Cc3ccco3)c(=O)c3ccccc32)c(C)c1`: the compound was called inactive. On the same count and under the same terms, as for `COc1ccc(NC(=O)c2ccc3c(c2)sc2nc(-c4ccc(OC)cc4)cn23)cc1`, the entry is “inactive”. As for `Cn1c(=O)c2cc(C(=O)NCCCN3CCN(c4ccccc4F)CC3)sc2c2ccccc21`, the “activity change, negative = inhibition” value was inactive: 14.5%. For the compound `Cc1ccc(-n2c(=O)c3ccc(C(=O)NCc4ccco4)cc3n(Cc3ccccc3C#N)c2=O)cc1`, the “activity change, negative = inhibition” value is inactive: -7.77%. `Cc1ccccc1Cn1c(=O)n(Cc2ccc3c(c2)OCO3)c(=O)c2oc3ccccc3c21`: the “activity change, negative = inhibition” value was inactive: -2.32%. Take `O=C(NC1CCCC1)c1ccc2c(c1)N(Cc1ccc(C(F)(F)F)cc1)C(=O)c1ccccc1S2`: the “activity change, negative = inhibition” value is inactive: -4.59%. Regarding `Cc1ccc(NC(=O)CN2C(=O)CCc3cc(S(=O)(=O)N4CCOCC4)ccc32)cc1N(C)C`, the compound was classed as inactive. Same read-out and setting: as for `O=C(CCc1nc2cccnc2n1Cc1cccs1)Nc1cccc(C(F)(F)F)c1`, the entry is “inactive”. Take `O=C(c1cccs1)N(Cc1cccnc1)c1nc2c(Cl)cccc2s1`: the “activity change, negative = inhibition” value is inactive: 3.91%.

As for `O=C(c1ccc(C(F)(F)F)cc1)N1CCC(c2noc(-c3ccc(S(=O)(=O)N4CCCC4)cc3)n2)CC1`, the “activity change, negative = inhibition” value is inactive: -0.638%.

As for `COc1ccc(Nc2c3c(nc4ccc(NC(=O)/C=C/c5cc(OC)c(OC)c(OC)c5)cc24)CCCC3)cc1OC`, the “activity change, negative = inhibition” value was inactive: -8.85%. Same read-out and setting: to `O=C(Nc1ccc(-c2nc3cc(NC(=O)c4ccccc4Cl)ccc3o2)cc1)c1ccccc1Cl` belongs inactive: -29.1%; to `CN(C)C(=O)c1ccc(NC(=O)Cn2nnnc2-c2ccccc2F)cc1`, inactive: 2.63%. In the case of `COc1ccc(N2CCN(C(=O)CSc3n[nH]c(-c4ccccc4)n3)CC2)cc1`, the compound was classed as inactive. For the compound `COCCCNS(=O)(=O)c1cc(-c2onc(C)c2C)ccc1OC`, the “activity change, negative = inhibition” value was inactive: -4.47%. In the case of `COc1ccc(-c2noc(CCC(=O)N(C)c3ccccc3C)n2)cc1`, the “activity change, negative = inhibition” value was inactive: 8.04%. In the case of `Cc1ccccc1C(=O)N(Cc1ccc(N(C)C)cc1)Cc1ccco1`, the “activity change, negative = inhibition” value is inactive: 1.12%. Still for that read-out and setting: to `COc1ccc(N(CC(=O)NCc2ccc(F)cc2)S(=O)(=O)c2c(C)noc2C)cc1` belongs inactive: 15.8%. Same read-out and setting: as for `N#Cc1ccc(-c2cccs2)nc1SCc1c(F)cccc1Cl`, the figure is inactive: -33%; as for `CN(C)c1ccc(CN(CC2CCCO2)C(=O)COc2ccccc2Cl)cc1` (stereo unspecified), inactive: 15.7%. Regarding `COc1ccccc1CNC(=O)Cc1c(C)c2c(cc(C)c3c(C)coc32)oc1=O`, the result was inactive. Same read-out and setting: as for `CCCN(c1ccc(C(C)C)cc1)S(=O)(=O)c1ccc2c(c1)CCN2C(=O)CC`, the entry is “inactive”.

`COc1ccc(OC)c(-c2nc3c(C#N)c[nH]n3c2NC2CCCCC2)c1`: the “activity change, negative = inhibition” value is inactive: -15.8%. On the same count and under the same terms, as for `CC1=C(C(=O)Nc2ccc(Cl)cc2)C(c2ccccc2C)n2ncc(C(=O)Nc3ccc(C)cc3)c2N1` (stereo unspecified), the figure is inactive: -7.44%. As to `COc1ccc(CCNC(=O)C(=O)NCC(c2ccc3c(c2)OCO3)N2CCOCC2)cc1` (stereo unspecified), the “activity change, negative = inhibition” value is inactive: 5.7%.

On to `Cc1cccc(OCC(=O)NC(Cc2c[nH]c3ccccc23)C(=O)O)c1C` (stereo unspecified), for which the “activity change, negative = inhibition” value was inactive: -0.195%. The same measure, in the same setting: as for `COc1ccc(-c2ccc3c(N4CCOC[C@H]4C)nc(N4CCOC[C@H]4C)nc3n2)cc1CO`, the figure is inactive: -14.6%. Still for that read-out and setting: to `CCc1nonc1NC(=O)c1oc2ccc(F)cc2c1C` belongs inactive: 3.76%; to `CN(C)c1ccc(CNC(=O)C2CCCN(S(=O)(=O)c3ccc4c(c3)oc(=O)n4C)C2)cc1` (stereo unspecified), inactive: 28.9%; to `Cn1c(=O)n(-c2ccc(C(C)(C)C#N)cc2)c2c3cc(-c4cnc5ccccc5c4)ccc3ncc21`, inactive: 28%. Turning to `COc1ccc(-n2cc(-c3ccccc3)c3c(NC4CCCCC4)ncnc32)cc1`, the “activity change, negative = inhibition” value was inactive: -15.1%. The same measure, in the same setting: as for `O=C(Nc1cc(F)ccc1F)N1CCC(CN2CCOCC2)CC1`, the figure is inactive: 6.11%.

Consider `Cc1ccc(-c2nc3cc(NC(=O)c4cc5ccccc5o4)ccc3o2)cc1`, for which the compound was called inactive. With `Cc1cccc(OCCCCn2c(C3CC(=O)N(c4ccccc4Cl)C3)nc3ccccc32)c1` (stereo unspecified), the “activity change, negative = inhibition” value is inactive: -9.25%. For `Cc1ccc2c(CC(=O)Nc3cccc(Cl)c3C)coc2c1`, the “activity change, negative = inhibition” value was inactive: 0.184%. In the case of `COc1ccc(S(=O)(=O)NCCc2sc(C)nc2C)cc1F`, the outcome was inactive. On to `Cn1c(=O)n(C/C=C/c2ccccc2)c(=O)c2c1nc1n2CCN1c1ccc(F)cc1`, for which the “activity change, negative = inhibition” value is inactive: 3.51%. Still for that read-out and setting: to `CCOc1ccc(-c2cnc(NCc3ccc(C(F)(F)F)cc3)n2C)cc1` belongs inactive: -17.5%. Still for that read-out and setting: to `CN1CCN(c2ncc3c(n2)CCN(Cc2cc(Br)cs2)C3)CC1` belongs inactive: 5.52%. The same measure, in the same setting: as for `COc1ccc(C(=O)CC2(O)C(=O)Nc3c(C)cccc32)c(OC)c1OC` (stereo unspecified), the figure is inactive: -9.91%.
